From PubChem BioAssay AID687022 (Broad Institute, 2013)
About 360 (36%) of roughly 1,000 compounds were called active.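 The calls were made as follows: active = Fitted curve of melting temperature shift crosses the 1.0 threshold at or below the sample's highest valid tested concentration; inconclusive = Flat fit with activity 30 to 70, or invalid fit; inactive = Opposite direction, flat within 30, or no crossing.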 This part holds few or none of the hits.

These compounds were tested against Fibroblast growth factor 22 (Homo sapiens) (UniProt Q9HCT0) (assay: FGF22 ligand-induced thermal stabilization – biophysical, thermal shift, cherry-pick, FGF22 synaptogenesis inhibitor project, dose response (AID 687022; also: reference of the scale not given here)). Conditions: recombinant FGF22 thermal shift, SYPRO orange melting; at 38 µM (top of the series) unless noted.
Sequence of UniProt Q9HCT0 (Q9HCT0 whole entry, looked up): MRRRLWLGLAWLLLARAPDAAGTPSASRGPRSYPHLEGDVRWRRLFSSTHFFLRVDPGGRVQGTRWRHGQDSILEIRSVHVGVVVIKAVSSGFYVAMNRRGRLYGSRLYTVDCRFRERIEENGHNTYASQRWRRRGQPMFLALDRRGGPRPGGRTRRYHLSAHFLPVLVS
For CC(=O)NC(Cc1c[nH]c2ccccc12)C(=O)NCCc1ccccn1 (centres undefined), the Tm shift activity was inactive: 0.026%. O=[N+]([O-])c1ccc2oc(/C=C/c3ccc(O)cc3)nc2c1 was tested, and the Tm shift activity was inactive: -0.179%. C[C@H]1CN([C@@H](C)CO)S(=O)(=O)c2ccc(C#Cc3ccccc3F)cc2O[C@@H]1CN(C)C(=O)Cc1cccnc1 was tested, and the Tm shift activity was inactive: 0.102% [at 42 µM]. N#CCSc1n[nH]c2nc3c(c(=O)n12)C1(CCCCC1)Cc1ccccc1-3 was tested, and the Tm shift activity was inactive: 0.19%. C[C@H](CO)N1C[C@H](C)[C@H](CN(C)S(=O)(=O)c2ccc(F)cc2)Oc2ccc(NC(=O)c3ccncc3)cc2C1=O was tested, and the Tm shift activity was inactive: -0.057%. In the case of CN1CCN(C(=O)C[C@H]2C=C[C@H](NC(=O)c3ccc4c(c3)OCO4)[C@H](CO)O2)CC1, the Tm shift activity is reported as inactive: 0.059% [at 42 µM]. With C/C=C/c1ccc([C@H]2[C@@H](CO)N(C(=O)CC)C23CN(C(=O)c2ccccc2)C3)cc1 the Tm shift activity was inactive: -0.234%. COCC(=O)N(C)C[C@@H]1Oc2cc(C#Cc3ccccc3)ccc2S(=O)(=O)N([C@@H](C)CO)C[C@H]1C was tested, and the Tm shift activity was inactive: 16.2% [at 42 µM]. In the case of Cc1ccc(S(=O)(=O)Nc2ccc3c(c2)CC(=O)N([C@H](C)CO)C[C@@H](C)[C@H](CN(C)C(=O)Nc2ccccc2)O3)cc1, the Tm shift activity is reported as inactive: -0.162%. In the case of CC(C)C#Cc1ccc([C@H]2[C@@H](CO)N3C(=O)CN(C(=O)C4CCCCC4)C[C@@H]23)cc1, the Tm shift activity is reported as inactive: -0.12%. With O=C(N[C@@H]1CC[C@H](CC(=O)N2CCN(c3ccccc3)CC2)O[C@@H]1CO)c1ccccc1 the Tm shift activity was inactive: 0.093% [at 42 µM]. With Cc1ccc(S(=O)(=O)N(C)C[C@H]2Oc3ncc(Br)cc3C(=O)N([C@@H](C)CO)C[C@H]2C)cc1 the Tm shift activity was inactive: -0.244% [at 42 µM]. With COc1cc(/C=C2\CCn3c2nc2cc(C(=O)O)ccc2c3=O)ccc1OC(F)F the Tm shift activity was inactive: 0.063% [at 5 µM]. NC(c1ccc(F)c(F)c1)c1nc(-c2cncnc2)cs1 (centres undefined) was tested, and the Tm shift activity was inactive: 0.033%. In the case of COc1ccc(N=NC2C(=O)N(c3ccccc3)N=C2C)cc1 (centres undefined), the Tm shift activity is reported as inactive: -0.121%. CNC(=O)C[C@@H]1CC[C@@H]2[C@@H](COc3ccc(NS(=O)(=O)c4ccccc4C)cc3C(=O)N2C)O1 was tested, and the Tm shift activity was inactive: -0.276% [at 42 µM]. In the case of O=C(CN1CCCC1)Nc1ccc(OC(F)(F)F)cc1, the Tm shift activity is reported as inactive: 0.137%. For Cc1ccccc1-c1ccc([C@H]2[C@@H](CO)N3CCCCN(Cc4cccnc4)C[C@H]23)cc1, the Tm shift activity was inactive: -0.108% [at 42 µM]. With O=C(C[C@H]1CC[C@H]2[C@@H](COC[C@H](O)CN2S(=O)(=O)c2cccc(Cl)c2)O1)Nc1ccccc1 the Tm shift activity was inactive: -0.014% [at 42 µM]. CCC(C)NS(=O)(=O)c1ccc(S(=O)(=O)N2CC=C(c3ccc(F)cc3)CC2)cc1 (centres undefined) was tested, and the Tm shift activity was inactive: 0.017%. CC(C)NC(=O)Nc1ccc2c(c1)C(=O)N([C@H](C)CO)C[C@@H](C)[C@@H](CN(C)C(=O)Nc1ccccc1)OCCCC[C@@H](C)O2 was tested, and the Tm shift activity was inactive: -0.149%. COc1cc(NS(=O)(=O)c2ccc(NS(=O)(=O)c3ccc(NC(C)=O)cc3)cc2)nc(OC)n1 was tested, and the Tm shift activity was inactive: 0.392%. CCNC(=O)C[C@H]1CC[C@@H]2[C@H](COC[C@H](O)CN2C(=O)C2CCOCC2)O1 was tested, and the Tm shift activity was inactive: 0.078%. For OC[C@@H]1[C@H](c2ccc(-c3cccnc3)cc2)[C@H]2CN(Cc3ccccn3)CCCCN12, the Tm shift activity was inactive: 0.193%. In the case of COc1ccccc1S(=O)(=O)N(C)C[C@@H]1Oc2cc(C#CCC(C)C)ccc2S(=O)(=O)N([C@@H](C)CO)C[C@H]1C, the Tm shift activity is reported as inactive: 0.178% [at 42 µM]. For O=C(O)c1[nH]c2ccc(Br)cc2c1CCN1C(=O)c2cccc([N+](=O)[O-])c2C1=O, the Tm shift activity was inactive: -0.205%. In the case of CC(C)C[C@@H](CN(C)N=O)N(C[C@H](Cc1ccccc1)N(CCc1ccccc1)N=O)N=O, the Tm shift activity is reported as inactive: 0.389%. For Cc1ccc(S(=O)(=O)N2C[C@H](O)COC[C@H]3O[C@H](CC(=O)NCc4ccc(Cl)c(Cl)c4)CC[C@@H]32)cc1, the Tm shift activity was inactive: -5.17% [at 42 µM]. C[C@@H]1CN([C@H](C)CO)S(=O)(=O)c2ccc(C3=CCCCC3)cc2O[C@H]1CN(C)C(=O)CN(C)C was tested, and the Tm shift activity was inactive: -0.023% [at 42 µM]. In the case of COC(=O)[C@]1(C)N[C@H](c2ccc(-c3ccccc3)cc2)[C@@H]2C(=O)N(C)C(=O)[C@@H]21, the Tm shift activity is reported as inactive: -0.021%. For O=C1C=CCCN1C(=O)/C=C/c1ccc(F)cc1, the Tm shift activity was inactive: -0.322%. Cc1ccc(S(=O)(=O)N[C@@H]2C=C[C@@H](CC(=O)N3CCc4ccccc4C3)O[C@@H]2CO)cc1 was tested, and the Tm shift activity was inactive: -0.018%. CC(C)NC(=O)Nc1ccc2c(c1)C(=O)N([C@@H](C)CO)C[C@@H](C)[C@@H](CN(C)C(=O)Nc1ccccc1)OCCCC[C@@H](C)O2 was tested, and the Tm shift activity was inactive: 0.051%. With CC(=O)Nc1ccc2nc(NC(=O)COc3ccc(C)cc3)sc2c1 the Tm shift activity was inactive: 0.473%. OC[C@@H]1[C@@H](c2ccc(-c3cccnc3)cc2)[C@H]2CN(Cc3ccccn3)CCCCN12 was tested, and the Tm shift activity was inactive: -0.124%. With CC(=O)c1cccc(NC(=O)C2CCCN2S(=O)(=O)c2cccs2)c1 (centres undefined) the Tm shift activity was inactive: 0.238%. For CCc1nnc(NC(=O)CN2CCN(Cc3ccc(C)cc3)CC2)s1, the Tm shift activity was inactive: -0.143%. For c1ccc(NCc2ccccn2)cc1, the Tm shift activity was inactive: 0.047%. In the case of CC(=O)N(C)C[C@@H]1Oc2ncc(C#CC(C)(C)O)cc2C(=O)N([C@@H](C)CO)C[C@H]1C, the Tm shift activity is reported as inactive: -0.011%. In the case of O=C(NC1CCCCC1)N1CC(=O)N2[C@H](C1)[C@@H](c1ccc(-c3cccc(F)c3)cc1)[C@@H]2CO, the Tm shift activity is reported as inactive: -4.11%. In the case of CC(OC(=O)c1ccccc1)C(=O)NCCC1=CCCCC1 (centres undefined), the Tm shift activity is reported as inactive: -0.183%. O=C(C[C@@H]1CC[C@H]2[C@@H](COC[C@@H](O)CN2C(=O)c2ccc(F)cc2)O1)NCc1cccc(F)c1 was tested, and the Tm shift activity was inactive: -0.491%. In the case of O=C(NCC1CCCCC1)c1cccnc1Cl, the Tm shift activity is reported as inactive: -0.036%. For O=C(COc1ccc2c(c1)oc(=O)c1ccccc12)NC(Cc1ccc(Cl)cc1)C(=O)O (centres undefined), the Tm shift activity was inactive: 0.527% [at 5 µM].
